The values below come from article PMC10150487, “m^6A readers ECT2/ECT3/ECT4 enhance mRNA stability through direct recruitment of the poly(A) binding proteins in Arabidopsis” (Genome Biology, 2023).

Test [1] deals with T1, GST-tagged ECT2 fragment with the YTH domain alone (Arabidopsis thaliana) (UniProt Q9LJE5).
T1 sequence: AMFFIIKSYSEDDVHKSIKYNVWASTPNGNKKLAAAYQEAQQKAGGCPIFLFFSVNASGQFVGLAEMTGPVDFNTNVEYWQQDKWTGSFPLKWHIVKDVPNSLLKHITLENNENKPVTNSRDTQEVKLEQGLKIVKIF
Kind of test: pull-down; GST pull-down: 100 pmol pre-cleared MBP-PAB2 or MBP-PAB4 mixed with 100 pmol GST or GST-ECT2 (full length or fragments) and glutathione magnetic agarose beads, 2 h at 4 °C, IPP buffer (150 mM NaCl, 0.1% NP-40, 10 mM Tris pH 7.4, 0.5 mM DTT); immunoblot with anti-MBP and anti-GST; both purified.

Test [2] addresses T2, ECT3-nYFP (Arabidopsis thaliana) (UniProt F4K1Z0).
T2 sequence: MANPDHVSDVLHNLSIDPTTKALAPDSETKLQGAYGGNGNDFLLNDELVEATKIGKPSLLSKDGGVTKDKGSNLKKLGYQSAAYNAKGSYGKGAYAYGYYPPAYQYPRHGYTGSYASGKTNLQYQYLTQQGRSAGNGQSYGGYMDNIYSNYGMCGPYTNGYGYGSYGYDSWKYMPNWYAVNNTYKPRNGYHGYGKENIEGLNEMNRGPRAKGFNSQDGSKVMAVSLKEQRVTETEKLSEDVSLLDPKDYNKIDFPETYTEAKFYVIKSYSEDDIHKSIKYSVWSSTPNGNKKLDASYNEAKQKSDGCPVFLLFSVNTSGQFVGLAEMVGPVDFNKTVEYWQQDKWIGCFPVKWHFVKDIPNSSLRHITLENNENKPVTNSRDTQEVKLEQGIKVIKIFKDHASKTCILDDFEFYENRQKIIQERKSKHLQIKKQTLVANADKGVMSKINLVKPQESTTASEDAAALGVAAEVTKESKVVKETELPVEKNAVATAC
As to the kind of experiment: split reporter; BiFC with split YFP; pairs co-infiltrated with Agrobacterium GV3101 into 4-week-old Nicotiana benthamiana leaves, P19 co-expressed; YFP signal read 48-60 h after infiltration by confocal microscopy.

Test [3] addresses T3, ECT2-nYFP (Arabidopsis thaliana) (UniProt Q9LJE5).
T3 sequence: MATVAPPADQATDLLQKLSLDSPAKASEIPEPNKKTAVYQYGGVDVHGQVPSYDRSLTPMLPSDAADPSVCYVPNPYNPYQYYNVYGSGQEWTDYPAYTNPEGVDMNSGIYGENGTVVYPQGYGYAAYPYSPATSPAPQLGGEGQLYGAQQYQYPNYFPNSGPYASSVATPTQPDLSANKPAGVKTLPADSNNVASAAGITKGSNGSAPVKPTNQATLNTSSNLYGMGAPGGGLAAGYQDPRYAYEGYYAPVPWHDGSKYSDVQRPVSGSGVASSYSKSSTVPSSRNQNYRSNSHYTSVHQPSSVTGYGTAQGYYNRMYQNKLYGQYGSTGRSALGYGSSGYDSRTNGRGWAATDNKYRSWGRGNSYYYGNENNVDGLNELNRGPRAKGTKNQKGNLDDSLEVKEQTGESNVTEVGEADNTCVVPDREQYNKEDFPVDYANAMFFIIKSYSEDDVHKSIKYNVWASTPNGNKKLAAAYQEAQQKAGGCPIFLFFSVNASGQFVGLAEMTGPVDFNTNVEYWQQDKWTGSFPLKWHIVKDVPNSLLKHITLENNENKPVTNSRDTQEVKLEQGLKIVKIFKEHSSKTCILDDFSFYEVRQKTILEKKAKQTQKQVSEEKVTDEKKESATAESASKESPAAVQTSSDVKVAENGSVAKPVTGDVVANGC
Described as above.

No constants are given. Whether binding was seen depends on the method and setting. For part of these data: In cells and extracts the contact can be indirect. Some results given as binding are weak or reduced against the parent protein; the word gives no strength. Tags and fused reporters may be left off the sequences shown.

B1: MBP-tagged PAB2 (natural protein, Arabidopsis thaliana, UniProt P42731 1-629, looked up)
chain: MAQVQLQGQTPNGSTAAVTSAPATSGGATATQFGNTSLYVGDLDFNVTDSQLFDAFGQMGTVVTVRVCRDLVTRRSLGYGYVNFTNPQDAARAIQELNYIPLYGKPIRVMYSHRDPSVRRSGAGNIFIKNLDESIDHKALHDTFSSFGNIVSCKVAVDSSGQSKGYGFVQYANEESAQKAIEKLNGMLLNDKQVYVGPFLRRQERDSTANKTKFTNVYVKNLAESTTDDDLKNAFGEYGKITSAVVMKDGEGKSKGFGFVNFENADDAARAVESLNGHKFDDKEWYVGRAQKKSERETELRVRYEQNLKEAADKFQSSNLYVKNLDPSISDEKLKEIFSPFGTVTSSKVMRDPNGTSKGSGFVAFATPEEATEAMSQLSGKMIESKPLYVAIAQRKEDRRVRLQAQFSQVRPVAMQPSVGPRMPVYPPGGPGIGQQMFYGQAPPAMIPPQPGYGYQQQLVPGMRPGGGPVPSFFMPMVQPQQQRPGGGRRPGGIQHSQQQNPMMQQQMHPRGRMFRYPQGRGGSGDVPPYDMGNNMPLTIGALASNLSNATPEQQRTMLGEVLYPLVEQVEAESAAKVTGMLLEMDQTEVLHLLESPEALKAKVAEAMDVLRSVAAGGATEQLASLNLS
notes: also called MBP-PAB2; source: Escherichia coli BL-21 Gold, purified (amylose resin)
For B1, the binding result in test [1] is recorded as “no binding (tested: 100 pmol each)”.

B2: ECT4-cYFP (protein, UniProt A0A1P8AS03 1-605)
chain: MSTVAPPADQAADVLKKLSLDSKSRTLEIPEPTKKTGVYQYGAMDSNGQVPSFDRSLSPMLPSDALDPSVFYVPNVYQQPYYYGYGSDYTGYTNSESVDMTSGAYGENASLVYPQGYGYAAFPYSPATSPAPQLGGDGQLYGAQQYQYPFPLTASSGPFASSVPASTQSKLSTNKAANSASAGIPKGMNGSAPVKPLNQSALYGNSALGGGLAAGYQDPRYSYDGFYTPVSWHDGSNFSDVQRSVSGSGVASSYSKANNNVPATRNQNSSSNSHYTSMYQPASMTGYAAQGYYDRVSPNKSYGQYGSTVRSGMGYGSSGYGSRTNERGWLNTDNKYRSRGRGNSYFYGNENIDGLNELNRGPRAKGTKATEEVSSEEVKKQTFDESNTEETVTCVLPDREECNRDDFPVEYKDAKFFIIKSYSEDDVHKSIKYNVWASTPNGNKKLDAAYQEAQQKSSGCPVFLFFSVNASGQFIGLAEMKGPVDFNKNIEYWQQDKWTGSFPLKWHILKDVPNSLLKHITLEYNENKPVTNSRDTQEVKLEQGLKVVKIFKEHNSKTCILDDFSFYEARQKTILEKKAKQQQSQKQVWEGKTNDEKPGTVDSTM
Take B2: the binding entry in test [2] and in test [3] was “binds” throughout.
